Data as given in PubChem BioAssay AID1645887 (National Center for Advancing Translational Sciences (NCATS), 2021).
Values joined by “and” are separate entries in the source; they are usually repeats but may differ in a detail not shown here. Identical values can stand only once. Among all 16,000 compounds or so, about 40 (0.2%) were called active. Not shown: some 1% with an inconclusive outcome. Calls follow the shape of the dose curve; as a rule, active = well fitted activation curve with a large enough effect; inconclusive = small, poorly fitted or top-dose-only effect, or another doubt; inactive = no such curve, though single readings can be large or run the other way. The list shows a part of the results.

Target: Rap guanine nucleotide exchange factor 4 (Homo sapiens) (UniProt Q8WZA2)
Experiment: Validation qHTS for agonist of cAMP-regulated guanine nucleotide exchange factor 4 (EPAC2);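 also: exchange makes BODIPY-GDP fluorescence drop when released from Rap1B; series mostly up to about 150 µM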
Conditions: EPAC2 Rap1B BODIPY-GDP exchange, fluorescence; activation: active compounds read high
How it was run: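 Signal normalized against 6.5 mM cAMP as agonist control. Mix of EPAC2 (100 nM), RAP1B-BODIPY-GDP (250 nM) and GDP (50 uM) was read kinetically at 480/540 nm, every 5 min over 30 min, after 5 min room-temperature incubation with compound.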
% is scaled to controls: 0 for no effect and ±100 for the full control effect.

Sequence of UniProt Q8WZA2 (Q8WZA2 whole entry, looked up): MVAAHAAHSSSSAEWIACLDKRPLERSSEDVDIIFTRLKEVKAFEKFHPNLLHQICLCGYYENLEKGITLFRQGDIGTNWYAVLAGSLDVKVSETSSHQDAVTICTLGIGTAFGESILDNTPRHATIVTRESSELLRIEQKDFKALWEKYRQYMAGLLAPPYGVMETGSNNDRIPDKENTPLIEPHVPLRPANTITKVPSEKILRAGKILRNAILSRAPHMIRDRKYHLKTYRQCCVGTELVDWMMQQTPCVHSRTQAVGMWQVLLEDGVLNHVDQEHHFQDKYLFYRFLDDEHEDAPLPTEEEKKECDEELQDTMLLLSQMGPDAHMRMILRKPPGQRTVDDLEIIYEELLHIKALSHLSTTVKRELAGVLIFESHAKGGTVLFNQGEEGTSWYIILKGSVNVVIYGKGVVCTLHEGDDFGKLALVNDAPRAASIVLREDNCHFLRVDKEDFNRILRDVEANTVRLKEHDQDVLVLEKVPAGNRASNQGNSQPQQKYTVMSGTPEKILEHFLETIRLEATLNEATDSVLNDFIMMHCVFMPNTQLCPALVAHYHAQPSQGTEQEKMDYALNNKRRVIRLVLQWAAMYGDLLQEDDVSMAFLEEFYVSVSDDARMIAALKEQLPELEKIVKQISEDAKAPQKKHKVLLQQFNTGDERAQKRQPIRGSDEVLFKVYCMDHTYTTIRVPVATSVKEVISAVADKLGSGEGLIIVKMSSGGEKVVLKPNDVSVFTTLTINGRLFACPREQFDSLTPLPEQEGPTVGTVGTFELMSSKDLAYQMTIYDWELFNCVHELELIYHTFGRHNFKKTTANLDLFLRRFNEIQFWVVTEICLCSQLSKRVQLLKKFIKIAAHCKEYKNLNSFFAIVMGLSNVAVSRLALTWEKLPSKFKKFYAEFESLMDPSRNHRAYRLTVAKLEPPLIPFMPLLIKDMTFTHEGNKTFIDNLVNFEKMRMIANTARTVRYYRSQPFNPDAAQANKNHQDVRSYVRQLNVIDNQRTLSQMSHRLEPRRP

activation, inactive:
COCCn1c(=O)c(-c2ccc(OC)cc2)nc2cnc(Oc3cccc(Cl)c3)nc21 6.47%
CN1CCc2cc(Cl)c(O)cc2[C@@H](c2ccccc2)C1 -12.4% and 0.709% and -24.7%
COc1ccccc1CNc1ncncc1-c1ccc2c(c1)OCO2 -0.45%
Nc1ccc(N2C(=O)c3ccccc3C2=O)c(Cl)c1 -21.3%
CCNc1ncc2nc(-c3ccccc3)c(=O)n(C)c2n1 -14.6%
CN(Cc1ccco1)c1ccnc(-c2cccnc2)n1 -0.387%
Cc1ncc(CO)c(CO)c1O -10.1%
Nc1nnnn1-c1ccccc1 -2.53%
COc1ccccc1C1CN(CCNC(=O)c2sccc2Cl)Cc2ccccc2O1 (stereo unspecified) -2.19%
CCC1COCCS(=O)(=O)N1Cc1ccc(C)cc1 (stereo unspecified) -21.5%
N#Cc1ccc(CN2CCCC3(CCN(S(=O)(=O)c4ccccc4)CC3)C2)cc1 -7.36%
COc1ccc2c(c1)CCc1cnc(-n3ncc(C(=O)N4CCN(CCO)CC4)c3C3CC3)nc1-2 -7.28%
Nc1ccc(O)c([N+](=O)[O-])c1 5.14%
CCO/C([O-])=N/c1c[n+](N2CCOCC2)no1 -4.45% and -0.689% and -12.5%
O=C(Nc1cccc(F)c1)N1CC[C@@]2(CCCNC2)C1 -21.3%
CCc1c(C)[nH]c2c1C(=O)C(CN1CCOCC1)CC2 (stereo unspecified) -41.5% and -7.68%
COc1ccc(-c2nc3cnc(N4CCN(C)CC4)nc3n(Cc3cccs3)c2=O)cc1 10.6%
NC(=O)CNCCC(c1ccccc1)c1ccccc1 0.615%
CC(=O)OCC1OC(Oc2cc(OC(C)=O)c3c(=O)cc(-c4ccc(OC(C)=O)c(OC(C)=O)c4)oc3c2)C(OC(C)=O)C(OC(C)=O)C1OC(C)=O (stereo unspecified) -28.6%
C=C1C2CC[C@@]3(C)C(c4ccoc4)OC(=O)C[C@@]13OC1CC(=O)C(C)(C)C(CC(=O)OC)[C@]12C (stereo partly specified) -10.3%
COc1cc(=O)n2c(c1C(=O)N(C)Cc1nonc1C)CCN(C(=O)c1cc(C)cc(C)c1)CC2 -14.9%
CC(=O)[C@@H]1[C@H]2[C@H](C(=O)[C@H]3OC[C@@H]2O3)[C@H]2C=Cc3ccccc3N21 18.9%
Clc1ccccc1-c1nc(N2CCNCC2)c2ccccc2n1 -1.48%
COc1cccc(Cn2c(=O)c(-c3ccc(Cl)cc3)nc3cnc(N4CCOCC4)nc32)c1 7.83%
OC[C@]1(O)OC[C@@H](O)[C@H](O)[C@@H]1O -20.2%
Cc1ccc(SCCN2CCC(C(C)(C)C)CCC2=O)cc1 (stereo unspecified) -7.42%
Cc1occc1C(=O)NCCN1Cc2ccccc2OC(c2ccccc2F)C1 (stereo unspecified) 6.09%
Cc1ccc(S[C@@H](CCN2CC[C@H](NC(=O)OCc3ccccc3)CCC2=O)c2ccccc2)cc1 -6.99%
CC(C)c1c(O)c(-c2cc3c(c(C(C)C)c2O)CCC2C(C)(C)CCC[C@@]32C)cc2c1CCC1C(C)(C)CCC[C@@]21C (stereo partly specified) 3.06%
Nc1ccc([N+](=O)[O-])cc1O -18.8%
CC(=O)Nc1ccccc1-c1nc(CNC(=O)c2ccc(F)c(F)c2)c(C)o1 -8.53%
COc1ncc2nc(-c3ccccc3)c(=O)n(CCc3ccccc3)c2n1 -3.34%
COc1cc(C(=O)NCCCCCC(=O)O)cc(OC)c1OC 7.6%
Cc1noc(C)c1-c1cc(N(C)Cc2ccco2)ncn1 -7.36%
Cc1ccnn1CC(=O)N1CCOc2c(cc(-c3ncc(C(F)(F)F)cc3Cl)cc2OCC2CCCO2)C1 (stereo unspecified) 1.98%
COCCNc1nc(-c2cccc(OC)c2)nc2ccccc12 -20.7%
COc1ccc(-c2nc3cnc(OC)nc3n(Cc3cccc(OC)c3)c2=O)cc1 -15.5%
CC1=C(C(=O)O)N2C(=O)[C@@H](NC(=O)[C@H](N)C3=CCC=CC3)[C@H]2SC1 0.0061%
N[C@@H](CCC(=O)N[C@@H](CS)C(=O)NCC(=O)O)C(=O)O -35.5%
O=C(c1ccco1)N1CCC2(CCCN(c3ccncc3)C2)CC1 -14%
CC(=O)OC[C@H]1O[C@@H](n2ncc(=O)[nH]c2=O)[C@H](OC(C)=O)[C@@H]1OC(C)=O 5.43%
CCCOC(=O)c1cc(O)c(O)c(O)c1 6.33%
c1nc(NCCN2CCOCC2)c2cc(-c3ccc4c(c3)OCO4)ccc2n1 -11.6%
O=C(c1csnn1)N1CCC2(CCCN(C(c3ccccc3)c3ccccc3)C2)CC1 7.91%
Cn1c(=O)c(-c2ccccc2)nc2cnc(OCc3ccccc3)nc21 -13.2%
COCCn1c(=O)c(-c2cn(C)c3ccccc23)nc2cnc(N3CCOCC3)nc21 3.79%
CC(C)N=c1cc2n(-c3ccc(Cl)cc3)c3ccccc3nc-2cc1Nc1ccc(Cl)cc1 -15.2%
COCC(=O)N1CCC[C@@]2(CCN(Cc3ccc(C#N)cc3)C2)C1 -13%
COCCNc1cc(-c2ccccc2C(F)(F)F)ncn1 -18.9%
N[C@@H]1CONC1=O 1.13%
COc1ccc2c(=O)c(C)c(-c3ccccc3)oc2c1CN(C)C 1.79%
COc1cccc(Cn2c(=O)c(-c3cn(C)c4ccccc34)nc3cncnc32)c1 -2.05%
CCCCC(CC)CCC(CC(C)C)OS(=O)(=O)O (stereo unspecified) -17% and -5.09%
COc1ccc(NC(=O)N2CC[C@@]3(CCCN(C(=O)c4cccc(F)c4)C3)C2)cc1 -15.9%
O=C(c1cnccn1)N1CCC[C@@]2(CCN(c3ncccn3)C2)C1 -20%
COc1ncc2nc(-c3ccccc3)c(=O)n(C[C@H]3CCCO3)c2n1 -2.4%
